From PubChem BioAssay AID463173 (ICCB-Longwood Screening Facility, Harvard Medical School, 2010)
Out of some 52,000 compounds screened, about 4,300 (8.3%) were called active. Cut-off read from the data, not from the text of the source: active = survival mostly below about 52% (no sharp cut-off); inactive = mostly above about 56%. The list shows a part of the results.

These compounds were tested on DeltatarO mutant (assay: growth inhibition of S. aureus wild type versus tarO mutant, primary screen, teichoic acid synthesis inhibitors, RN4220, OD600 (AID 463173)). Details: OD600, 18 h, active compounds read low, screened at 18.75 µg/mL (by protocol).

| Structure (SMILES) | survival |
| --- | --- |
| Cc1cccc(N2CCN(C(=O)c3ccc(CS(=O)c4cccc(Cl)c4)o3)CC2)c1C (stereo not drawn) | active: 51% |
| Cc1ccc(O)c(NC(=O)c2cc(-c3ccc4c(c3)OCO4)on2)c1 | inactive: 71% |
| CCCCOc1ccc(C(C)NC(=O)c2cccc(Nc3nc4ccccc4n4nnnc34)c2)cc1 (stereo not drawn) | inactive: 67% |
| CCOc1ccc(CCNC(=O)CSc2n[nH]c(-c3ccccc3)n2)cc1OCC | inactive: 86% |
| Cc1c(CC(=O)N2CCCCC2)c(=O)oc2c(C)c3occ(C(C)(C)C)c3cc12 | inactive: 60% |
| Cc1ccc(CN2CCSc3ccc(C(=O)NCCc4ccccc4)cc32)cc1 | inactive: 81% |
| COc1ccc(Cl)cc1NC(=O)C1CCN(c2nnc(C)c3c(C)n(-c4ccccc4)nc23)CC1 | inactive: 55% |
| O=c1n(Cc2cccc(F)c2)c2ccccc2c2nc(-c3ccccc3)nn12 | active: 33% |
| CN(C)C=NC(=O)c1cc2c(n(-c3ccccc3)c1=O)CC(C)(C)CC2=O | inactive: 46% |
| CCOC(=O)C1=NNC2C(=O)N(CC)C(=O)C12 (stereo not drawn) | inactive: 84% |
| Cc1ccc(NC(=O)C(=O)NCC(c2cccnc2)N2CCOCC2)cc1Cl (stereo not drawn) | inactive: 92% |
| CC(=O)NC1(c2ccccc2)CCN(C(=O)c2cccs2)CC1 | inactive: 94% |
| COc1ccc(CNC(=O)CCCN2C(=O)CSc3c2c(C)nn3-c2ccccc2)c(OC)c1 | inactive: 76% |
| COCCNC(=O)CCC(=O)N1Cc2cccc(OC)c2Oc2ncccc21 | inactive: 89% |
| COc1ccc(Cl)cc1NC(=O)CCS(=O)(=O)c1cccc2nonc12 | inactive: 146% |
| COc1cccc(CNC(=O)Cc2csc3ccccc23)c1OC | inactive: 86% |
| COc1ccc(NC(=O)C(=O)NCC2(c3ccc(OC)c(OC)c3)CCCC2)cc1 | inactive: 77% |
| CCc1ccc(NC(=O)Cn2ccn(Cc3ccccc3OC)c(=O)c2=O)cc1 | active: 46% |
| CCn1cc(S(=O)(=O)c2cccc(Cl)c2)c(=O)c2cc(F)c(N3CCC(C)CC3)cc21 | inactive: 90% |
| Cc1ccc(NC(=O)c2c(C)oc3ncnc(N4CCCCC4)c23)cc1Cl | inactive: 73% |
| Cc1ccc(-n2nc(C)c3c(C)cc(=O)n(CC(=O)N4CCCc5ccccc54)c32)cc1 | inactive: 80% |
| COc1cccc(-c2ccc3c(N)c(C(=O)c4ccc(Br)cc4)sc3n2)c1 | active: 28% |

| Structure (SMILES) | survival |
| --- | --- |
| O=C(Cc1ccc(Cl)cc1)Nc1nnc2n1CCS2 | inactive: 77% |
| COc1ccc(C)cc1NC(=O)CCc1c(C)nn(-c2ccc(N3CCOCC3)nn2)c1C | inactive: 67% |
| N/C(=N/c1nc2ccccc2o1)NC(=O)C(Cc1ccccc1)N1C(=O)c2ccccc2C1=O (stereo not drawn) | inactive: 90% |
| COc1ccc(CCC(=O)NC2CC(=O)N(c3cccc(F)c3)C2)cc1 (stereo not drawn) | inactive: 113% |
| CN(CC(=O)O)C(=O)c1ccco1 | inactive: 85% |
| COc1ccc(NC(=O)CCCSc2nc(-c3ccco3)cc(C(F)(F)F)n2)c(OC)c1 | active: 16% |
| CCCOC(=O)c1c(NC(=O)C2c3ccccc3Oc3ccccc32)sc2c1CCCC2 | inactive: 77% |
| CCOc1ccc(N(CC)C(=O)C2CCN(S(=O)(=O)c3cccc4nonc34)CC2)cc1 | inactive: 100% |
| COc1cc2c(cc1OC)CN(C(=O)CSc1nc(C)cc(C)c1C#N)CC2 | inactive: 63% |
| CCCC(=O)Nc1nnc(SCc2cc(=O)c3ccc(C)cc3[nH]2)s1 | inactive: 122% |
| O=C(CSc1ncc(S(=O)(=O)c2ccc(Cl)cc2)c(=O)[nH]1)Nc1ccc2c(c1)OCCO2 | inactive: 75% |
| COc1cccc(C(=O)NCC(=O)OCc2cc(=O)n3nc(C)sc3n2)c1 | inactive: 116% |
| CCOc1ccc(-c2c(C#N)c(N)nc3sc(C(=O)OC)c(N)c23)cc1 | inactive: 79% |
| CCCCNC(=O)C1=CC(c2ccc3c(c2)OCO3)=NS(=O)(=O)N1C | inactive: 85% |
| O=C1c2[nH]nc(-c3ccccc3)c2C(c2ccccc2)N1c1cccc(C(F)(F)F)c1 (stereo not drawn) | active: 20% |
| CCCc1cc(=O)n2[nH]c(NCc3ccc(CC)cc3)nc2n1 | inactive: 79% |
| O=C1SC(Nc2ccc(Cl)cc2)C(=O)N1Cc1ccccc1 (stereo not drawn) | inactive: 107% |
| Cc1c(Cl)cccc1Nc1nc(N)nc(CSc2nc3ccccc3s2)n1 | active: 24% |
| Cc1ccc(NC(=O)CCCn2c3ccccc3c(=O)c3cc(C)ccc32)c(Br)c1 | active: 38% |
| CC1CCN(S(=O)(=O)c2ccc3c(c2)N(CC(=O)NCCc2ccc(Cl)cc2)C(=O)CO3)CC1 | inactive: 87% |
| CCOC(=O)c1c(C)[nH]c(C)c1S(=O)(=O)N1CCC(C(=O)N2CCN(c3cc(C)ccc3C)CC2)CC1 | inactive: 70% |
| O=C1CS(=O)(=O)C2(C(=O)N(Cc3ccc(F)cc3)c3ccccc32)N1c1cccc(C(F)(F)F)c1 (stereo not drawn) | inactive: 124% |

| Structure (SMILES) | survival |
| --- | --- |
| O=C(CSc1nnc(-c2ccc(Cl)cc2)o1)N1CCc2ccccc21 | inactive: 96% |
| Cc1ccc(Cn2cnc3c(oc4ccccc43)c2=O)cc1 | inactive: 89% |
| Cc1cc(C)cc(NC(=O)C(NS(=O)(=O)c2cccc3nsnc23)c2ccccc2)c1 (stereo not drawn) | inactive: 80% |
| CCOC(=O)N1CCN(C(=O)c2ccc3c(c2)N(Cc2cc(C)ccc2C)C(=O)c2ccccc2S3=O)CC1 (stereo not drawn) | inactive: 64% |
| COc1ccc(CCNC(=O)CCc2cn(Cc3ccc(C)cc3)c3ccccc23)cc1OC | inactive: 62% |
| CCCCOc1nnc(-c2ccc(OCC)cc2)c2ccccc12 | active: -12% |
| CCOc1ccc(N(C)C(=O)C2CCN(S(=O)(=O)c3ccc4c(c3)CCCN4C(C)=O)CC2)cc1 | inactive: 73% |
| CCC(Sc1nc2ccncc2[nH]1)C(=O)Nc1ccc(F)cc1 (stereo not drawn) | inactive: 128% |
| O=S(=O)(c1ccccc1)c1nnn2c1nc(Nc1ccccc1)c1cc(Cl)ccc12 | inactive: 95% |
| Cc1ccc(Cl)cc1N1CCN(C(=O)Cn2ncc3c([nH]c4ccccc43)c2=O)CC1 | inactive: 102% |
| COc1cccc(-n2c(=O)c3sc4ccccc4c3n(CC(=O)Nc3ccccc3OC)c2=O)c1 | inactive: 65% |
| Cc1ccc(-n2nc(CO)c(C(=O)NCCc3ccccc3)n2)cc1 | inactive: 86% |
| COc1cccc(C(C(=O)NC2CCCCC2)N(C(=O)c2ccccn2)c2cccnc2)c1 (stereo not drawn) | inactive: 81% |
| Cn1ccnc1SCC(=O)N1c2ccccc2-c2c(ssc2=S)C1(C)C | inactive: 99% |
| Cc1ccc2c(c1)c1c3n2CCN(C(=O)CN2CCN(C(=O)c4ccco4)CC2)C3CCC1 (stereo not drawn) | inactive: 56% |
| COc1ccccc1-c1cc(C(F)(F)F)nc(S(=O)(=O)CCCC(=O)Nc2cc(C)ccc2O)n1 | active: 47% |
| Cc1ccc2c(=O)c(C(=O)c3ccc(F)cc3)cn(CC(=O)NC3CCCCC3)c2n1 | inactive: 55% |
| CCOc1ccc(CNC(=O)c2cc3c(=O)n(Cc4cccs4)ccc3nc2C)cc1 | inactive: 112% |
| COC(=O)c1cc(S(=O)(=O)N2CCN(c3cccc(C)c3)C(C)C2)c[nH]1 (stereo not drawn) | inactive: 77% |
| CC(=O)Nc1ccc(S(=O)(=O)Nc2ccc(-c3cn4c(C)csc4n3)cc2)cc1 | inactive: 89% |
| CCc1c(C)sc(NC(=O)c2cc(-c3ccc(OC)cc3)on2)c1C#N | active: 50% |
| CCCCn1c2ccccc2c2nnc(SCC(=O)Nc3ccc(NC(C)=O)cc3)nc21 | inactive: 69% |

| Structure (SMILES) | survival |
| --- | --- |
| Cc1oc2ccc(O)c(CN(C)Cc3ccccc3)c2c1C(=O)Nc1cccc(Cl)c1C | active: 11% |
| O=C(Nc1onc2c1CCCC2)c1ccc(Cl)cc1 | inactive: 77% |
| CCc1nc2nc(C)cc(Nc3ccc(Br)cc3F)n2n1 | inactive: 128% |
| CCCCn1c(=N)n(CC(O)COc2ccccc2)c2ccccc21 (stereo not drawn) | inactive: 88% |
| Cc1ccccc1NC(=O)c1c2c(nc3ccccc13)C(=O)N(C1CCCCC1)C2 | inactive: 105% |
| Cc1ccc(-n2c3nc(=O)[nH]c(=O)c-3cc3c(Cl)cccc32)cc1 | inactive: 77% |
| Cc1ccc(NC(=O)c2sc(-n3nc(C)c(Cc4ccc(Cl)cc4)c3C)nc2C)cc1 | inactive: 75% |
| Cc1ccc(Cn2ccnc2SCC(=O)Nc2ccc3c(c2)OCO3)cc1 | inactive: 92% |
| Cc1ccc(C)c(NC(=O)N2CCN(C)c3ncccc32)c1 | inactive: 92% |
| CCOc1ccc(NC(=O)c2c(NC(=O)Cc3ccccc3)sc3c2CCCC3)cc1 | active: 45% |
| CCN(Cc1ccccc1)C(=O)Cn1c(=O)n(-c2ccc(OC)cc2OC)c(=O)c2c(C)c(C)sc21 | inactive: 86% |
| CCOc1ccc(CNC(=O)c2ccc(-c3nc(CSc4ccc(C)cc4)c(C)o3)cc2)cc1 | inactive: 79% |
| COc1ccc(Cl)cc1NC(=O)Cn1c(=O)n(Cc2ccco2)c(=O)c2ccc(C(=O)NC3CCCC3)cc21 | inactive: 94% |
| COc1ccc2c(Sc3ccccc3)c(C(=O)NCc3ccc(OC(C)C)cc3)[nH]c2c1 | inactive: 103% |
| COc1ccc(-c2nc3ccc(NS(=O)(=O)c4ccccc4)cc3o2)cc1 | active: 36% |
| COc1cccc(CNC(=O)c2cc3n(n2)CCCN(Cc2ccc(C)cc2)C3=O)c1OC | inactive: 89% |
| Cc1cccc(-c2nnc3n(CCc4ccccc4)c(=O)c4ccccc4n23)c1 | inactive: 75% |
| CCOc1ccc(-n2c(SCC(=O)NCc3ccco3)nc3c([nH]c4ccccc43)c2=O)cc1 | active: 37% |
| Nc1ccc(CN2C(=O)c3ccccc3C2=O)cc1 | inactive: 91% |
| CCOc1ccccc1NC(=O)c1cc(=O)c2ccc(C)cc2o1 | active: 44% |
| COc1ccc(NC(=O)CSc2oc(-c3cccs3)nc2S(=O)(=O)c2ccc(C)cc2)c(OC)c1 | inactive: 63% |
| O=C(Cc1cccs1)NC1CC(=O)N(c2cccc(F)c2)C1 (stereo not drawn) | inactive: 88% |
